Laboratory results as given in the supplement of paper PMC11417369.
± gives the standard deviation of the averaged measurements. The list shows a part of the results.

Tested on: PfAP2-I AP2 domain 3 (GST-tagged)
Assay: gcPBM binding intensity (ln(normalized median fluorescence intensity)); higher = stronger DNA binding
How it was run: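 The highest Masliner-normalised natural-log median intensity across replicate spots of either probe orientation is reported as binding intensity. GST-tagged P. falciparum DNA-binding domains expressed in E. coli were applied for 1 h to an Agilent 4 × 180k array of primer-extended double-stranded 36-bp intergenic genomic probes plus negative controls, and bound protein was detected with Alexa488 anti-GST antibody and scanned at 488 nm.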

“TTTATTCCAGTATTCACACACGAATAACCACATAAC [CACACA_site5104]” and “TATATAAGAGGAAAAAGTACAGAAAAACAAAGAGAA [XGTACX_site2926]” are within error of each other in “gcPBM binding intensity (ln)” value: 7.93 ± 0.42 for the first, 8.34 ± 0.8 for the second.

“TGTATTTATAGCAATACACACATAACAATAAATATA [CACACA_site3328]” and “ATAATTCTTTATTATAGTACACAAACTTTCAAAACA [XGTACX_site3597]” are within error of each other in “gcPBM binding intensity (ln)” value: 7.67 ± 0.41 for the first, 7.99 ± 0.33 for the second.

“CTATACATATTATATAGTACTTTATTATTATGACTA [XGTACX_site1382]” and “AAGAAAATATAAATATGTACTTAATAATTTATTTAT [XGTACX_site8100]” are within error of each other in “gcPBM binding intensity (ln)” value: 7.74 ± 0.43 for the first, 7.5 ± 0.47 for the second.

Compared with “AAAAAAGAGGGATACACACAAACATATATATATATA [CACACA_site2243]”, “ACAAAACATATATTCTGTACATATATAATGGTGACT [XGTACX_site6796]” is lower in “gcPBM binding intensity (ln)” value: 9.25 ± 0.24 for the first, 7.55 ± 0.54 for the second.

“TTTATATCTTATTATAGGAAAATGAATATTTTCTCT [TGCATGCA_negctrl_site478]” and “TTTATTTTAAAATTTACACACAAAAGGATTTATAGA [CACACA_site2338]” are within error of each other in “gcPBM binding intensity (ln)” value: 7.3 ± 0.49 for the first, 7.77 ± 0.37 for the second.

“TATATTAATTAACAGTGTACAAAAAAAAATAAAAAA [XGTACX_site3702]” and “AAAATAAAAAGAAATTGTACGTATAATAATATATTT [XGTACX_site7593]” are within error of each other in “gcPBM binding intensity (ln)” value: 8.04 ± 0.47 for the first, 7.87 ± 0.37 for the second.

Going from “AGGATACACGGACACACACACATATATATATATATA [CACACA_site4654]” to “TATTAAAATAACATACGTACATAAGTATATAAAAAA [XGTACX_site1769]”, the “gcPBM binding intensity (ln)” value falls from 9.59 ± 0.49 to 7.88 ± 0.4.

First: TATTTACACAAAATAAAATATATTATATATATATAT [TGCATGCA_negctrl_site381]
Second: TTGCACAGATTAATCAAAAATTTTAAACCAAATATA [XGTACX_negctrl_site38]
The “gcPBM binding intensity (ln)” value of the first is higher: 9.06 ± 0.071 for the first, 7.82 ± 0.38 for the second.

Compared with “AGAATAGAATAAAAAACACACATTTACAACATTATT [CACACA_site3894]”, “TATATGGAGAGATATGCACACTGTATGAATGCCCCC [CACACA_site8853]” is higher in “gcPBM binding intensity (ln)” value: 7.66 ± 0.58 for the first, 10 ± 0.31 for the second.

“TATTTATACATAGGTGGTACTACTTTAAACAAAAAA [XGTACX_site5062]” and “AAATAAATAATATTCACACATAAAAAAAATGGAGTT [CACACA_site4525]” are within error of each other in “gcPBM binding intensity (ln)” value: 8.06 ± 0.26 for the first, 7.58 ± 0.65 for the second.

“GTGCAATATTTATTTTGTACATATTTATCAATAAAC [XGTACX_site8297]” and “TTATATTTTTACAAGAGTACATATATATATATATAT [XGTACX_site5383]” are within error of each other in “gcPBM binding intensity (ln)” value: 10.5 ± 0.77 for the first, 9.47 ± 0.49 for the second.

Going from “ATTAAATATATTAAATGTACATAATATATATATATA [XGTACX_site5032]” to “TCAAACCAGTTGATGTGTACACATATAGTAATAATT [XGTACX_site6014]”, the “gcPBM binding intensity (ln)” value falls from 9.35 ± 0.11 to 8.05 ± 0.38.

“TTTATTTGATGAACATGTACAAAAAAACAAAGAACA [XGTACX_site823]” and “ATAAAAATAAAATGGACACACATATATACCTATTTG [CACACA_site5761]” are within error of each other in “gcPBM binding intensity (ln)” value: 8.08 ± 0.38 for the first, 7.71 ± 0.48 for the second.

First: TGATATTTTATTATTAAAATATATACATATATATAT [CACACA_negctrl_site1456]
Second: AAGAAAAAAAAAAAAAAAGATACTTTTTTAAAACTA [TGCATGCA_negctrl_site13]
The “gcPBM binding intensity (ln)” value of the first is higher: 8.93 ± 0.071 for the first, 7.33 ± 0.39 for the second.

“TTTTTTATATTGATATTTATTAAATATGAAATGTTA [GTGCAC_negctrl_site405]” and “TGAAAAAAGAAAAATACACACATATAATATAATATA [CACACA_site2255]” are within error of each other in “gcPBM binding intensity (ln)” value: 7.47 ± 0.28 for the first, 7.62 ± 0.77 for the second.

“TTATATAAGATATTTCGTACACATTCAAAAATTATG [XGTACX_site7375]” and “AATAAAATATAAGGGGGTACGGAGAAAGGATACTAT [XGTACX_site7733]” are within error of each other in “gcPBM binding intensity (ln)” value: 7.69 ± 0.42 for the first, 8.09 ± 0.57 for the second.

“CATACACCCCAACACACACACACACCCATATATAAT [CACACA_site8097]” and “AAAAAAAAAAAAAAAAGTACATATATTATATATATA [XGTACX_site2983]” are within error of each other in “gcPBM binding intensity (ln)” value: 8.17 ± 0.38 for the first, 8.72 ± 0.37 for the second.

“CACGCACGCACATACACACACATACACATATAAATA [CACACA_site6907]” and “ATGTTGTTCATAAATATATTATTTTTAAATGTACAA [GTGCAC_negctrl_site507]” are within error of each other in “gcPBM binding intensity (ln)” value: 8.35 ± 0.26 for the first, 7.67 ± 0.58 for the second.

“ATATATATTATTGAATGTACATAATTATTTAATAGT [XGTACX_site4971]” and “ATATATTCACGTTAATGTACACATAATAAATTATAT [XGTACX_site5481]” are within error of each other in “gcPBM binding intensity (ln)” value: 8.23 ± 0.31 for the first, 8.04 ± 0.42 for the second.

“GTATTTAGATGATTAACACACATATGTGTATTAATA [CACACA_site6733]” and “TATTCACTGATATGTTGTACATAAAAAAAATTAAAT [XGTACX_site6128]” are within error of each other in “gcPBM binding intensity (ln)” value: 7.92 ± 0.41 for the first, 7.82 ± 0.49 for the second.

“AATTATATTGGTTGTAGTACTAAAAGTAAGTTAATG [XGTACX_site33]” and “AGCTCTCAAAATTATTCACACGTGTCCTGTTATATA [CACACA_site5415]” are within error of each other in “gcPBM binding intensity (ln)” value: 7.96 ± 0.5 for the first, 8.36 ± 0.57 for the second.

Compared with “ATATTTCATTAATGAACACACAAAGAGGTATATAAA [CACACA_site1519]”, ATATTTAAAAATATAGTGCAATTATTCTAATGTGTT is higher in “gcPBM binding intensity (ln)” value: 8 ± 0.53 for the first, 9.96 ± 0.25 for the second.

“AAATAAAAGGTTGAGAGTACATTTTTGTGTATGTAT [XGTACX_site5547]” and “AAAAAAAAAATACAACAAAGTTAAATAAATAAATAA [GTGCAC_negctrl_site402]” are within error of each other in “gcPBM binding intensity (ln)” value: 7.81 ± 0.68 for the first, 7.67 ± 0.84 for the second.

First: ATATATTATTTTAAATGTACTCATAATAGAAATGTC [XGTACX_site40]
Second: ATATAAAGAAAAGGAACACACAAATATATATATATA [CACACA_site463]
The “gcPBM binding intensity (ln)” value of the first is lower: 8.04 ± 0.12 for the first, 9.08 ± 0.099 for the second.

Compared with “CACACAGGTAAAAAGGTGCAGTTGAAATATTCCTCA [GTGCAC_site9730]”, “GAAATAAATATATATGCATGTACTTTAATATTATTA [TGCATGCA_site904]” is lower in “gcPBM binding intensity (ln)” value: 10.13 ± 0.028 for the first, 7.94 ± 0.71 for the second.

First: TAAATATATTCATAAAGTACAAAGCAAAATTGTCTA [XGTACX_site7274]
Second: GTGCTTATTTATACATGTACAAATGATAAGTTTGTA [XGTACX_site169]
The “gcPBM binding intensity (ln)” value of the first is lower: 7.63 ± 0.57 for the first, 9.115 ± 0.049 for the second.

“AGGTGATTGATATATACACACATACCTATATTTATA [CACACA_site7348]” and “TGTTTATTTAATAATATTTTTTTTTTTATTATATTA [XGTACX_negctrl_site56]” are within error of each other in “gcPBM binding intensity (ln)” value: 7.67 ± 0.5 for the first, 7.2 ± 0.66 for the second.

“TTATTAAAATATTCTAGTACATATAAAAGGAGAACA [XGTACX_site4374]” and “AATGGAAAAAAAAAAATAAATACAAATAAATACAAA [GTGCAC_negctrl_site407]” are within error of each other in “gcPBM binding intensity (ln)” value: 7.99 ± 0.2 for the first, 7.58 ± 0.79 for the second.
